# Patent US8106075B2, “Insecticides” (Syngenta Crop Protection, Inc., priority 2004, dated 2012)
# Assays:
# Plutella xylostella = assay: Example B7: activity against Plutella xylostella, sprayed cabbage plants; conditions: in Brassica oleracea, 72 h, read-out: percentage reduction in the population and in the feeding damage (% activity)
# Spodoptera littoralis = assay: Example B8: activity against Spodoptera littoralis, sprayed soya plants; conditions: 72 h, read-out: percentage reduction in the population and in the feeding damage (% activity)
Structure (SMILES),inhibition at 400 ppm (Plutella xylostella) [%],inhibition at 400 ppm (Spodoptera littoralis) [%]
"Cc1cc(Cl)cc(C(=O)NCC2CCO2)c1NC(=O)c1cc(C(F)(F)F)nn1-c1ncccc1Cl (stereo not shown) [Compound P25, N-(4-chloro-2-methyl-6-[([oxetan-2-ylmethyl]amino)carbonyl]phenyl)-1-(3-chloro-2-pyridinyl)-3-(trifluoromethyl)-1H-pyrazole-5-carboxamide]",> 80,> 80
Cc1cccc(C(=O)NCC2CC2)c1NC(=O)c1cc(C(F)(F)F)nn1-c1ncccc1Cl [Compound P41],> 80,> 80
